The list shows a part of the results.
B1: chr17:76725537:76725647:-|CDS|ENSG00000070495|unk|total|mutant (ssRNA)
RNA: GGGAGUUCUACAGUCCGACGAUCUACUCAGUGAAGAUGAAGAUGAAAUACUACAUCGAGUACAUGGAGAGCACUCGAGAUGACCGUCCCCUUUACAUCUUUGACAGCAGCUAUGGUGAACACCCUAAAAGAAGGAAACUUUUGCAACAGAGGAUUGAGCAUCA
B2: chr1:42278343:42278454:-|CDS|ENSG00000198815|unk|total|mutant (ssRNA)
RNA: GGGAGUUCUACAGUCCGACGAUCAAAAAGAAAAUGACUUUAAGUGAAAUUUAUCAGUGGAUUUGUGAUAACUUCCCAUAUUACCGAGAGGCUGGCAGUGGUUGGAAGGUAAGGAUUUUAUUUAAAUUAUUACUUUUAUGAAGUCAACAGAGGAUUGAGCAUCA
B3: chr19:9526975:9527076:-|3pUTR|ENSG00000130818|unk|total|mutant (ssRNA)
RNA: GGGAGUUCUACAGUCCGACGAUCCCUCUCAGACCUUCCAUCAUUACUAUAUUUCACUUUUAUGCCUAUAAACACACACAAAUCCGCAUAUGUAAUCUAAUACAUUGCCGCUAUUUUUCAGAAGUUAUCAGAUCAAUUAAGUAUCAACAGAGGAUUGAGCAUCA
B4: chr5:33997006:33997390:-|three_prime_utr|ENSG00000289791|control|control|control (ssRNA)
RNA: GGGAGUUCUACAGUCCGACGAUCAAUUUAUGUUACACUCAGGCUGCUGGGGGAUGCUUCAGUUUCCUUCACAGAAAACUAAAUAGUGGGAAUCCGGACCAAUAAAGAAAGGAUCAAGAAGCUAAUGAAUUAGUCGCUAAUGCUCAACAGAGGAUUGAGCAUCA
B5: ENSG00000070961:be:win_151|CDS|ENSG00000070961|bound_else_gene|NA|bound_elsewhere_windowed (ssRNA)
RNA: GGGAGUUCUACAGUCCGACGAUCGAAAGCUAUGGAGAUGUCUAUGGAAUUUGCACCAAAUUGAAAACAUCUCCCAAUGAAGGUUUAAGUGGAAACCCUGCAGAUUUAGAAAGAAGAGAAGCAGUGUUUGGAAAGAAUUUUAUACAACAGAGGAUUGAGCAUCA
B6: chr12:67313014:67313056:+|3pUTR|ENSG00000111530|msi1_unk|total|mutant (ssRNA)
RNA: GGGAGUUCUACAGUCCGACGAUCUUUUUGCCGCAUUUAUUUCAGAAAUGUGUAUUUCCAUAAUCCAGAGGUUGUAAAACCACCCGUGUUUCCGUGGUUACAGCAACAUUUGAAAUGGAAACUAAAAGUCCGGAUUUUAUGGAGCAACAGAGGAUUGAGCAUCA
B7: chr1:112912765:112912828:-|3pUTR|ENSG00000155380|msi1_unk|FALSE|overlapping (ssRNA)
RNA: GGGAGUUCUACAGUCCGACGAUCUUAAGGUUUGCAAAUUAAAAAGGGCCAGAAAAAUUUGGCACCAGGCAAACGAAUAAAGAUAGGAUUGGGAAAGAAGUUGCUAAGUGUGCUUAGUUUUAAUAAGUAAUUCCUUCUCUUUUUCAACAGAGGAUUGAGCAUCA
B8: chrX:101412715:101412817:+|CDS|ENSG00000126945|unk|total|mutant (ssRNA)
RNA: GGGAGUUCUACAGUCCGACGAUCGGGUAUGGAGGCUAUGAUGACUAUGGUGGCUAUAAUGAUGGAUAUGGCUUUGGGUCUGACCGAUUUGGAAGAGACCUCAAUUACUGUUUUUCAGGAAUGUCUGAUCACCGAUACGGAGAUCAACAGAGGAUUGAGCAUCA
B9: chr2:80288350:80289195:-|three_prime_utr|ENSG00000162951|control|control|control (ssRNA)
RNA: GGGAGUUCUACAGUCCGACGAUCAGAUUCAGUCCCCAGUCCUCCUUCUCUGAGCAGACCUCUCAUCCGCAGCAUAUAUCUGCUAGAUCUUCUAAGAGCUGAAAUGGAGACUUCUGGAAGAAGGUGGGAAAGAAAUCCAUCUCGCAACAGAGGAUUGAGCAUCA
B10: chr6:117694021:117694122:+|CDS|ENSG00000153989|msi1|total|mutant (ssRNA)
RNA: GGGAGUUCUACAGUCCGACGAUCGCUGUCUCCGGAAGAUGGAAAAGCAGAUAUUGUAAGAGCUGCUCAGGACUUUUGCCAGUCCGCCGCCCAGAAGCAAAAGAGACCCACAGAUUUGGAUGCCGAUACGUCCGCCAGUUUACUCAACAGAGGAUUGAGCAUCA
B11: chrX:130625084:130625185:-|3pUTR|ENSG00000165675|msi1|total|mutant (ssRNA)
RNA: GGGAGUUCUACAGUCCGACGAUCAGUUCCUUUGAAUUUGUCAGUUCAUUCCUGGAAAAUCUUUUGAGUUAAAAUAAGGAUCCCCGGACAGCACCUCGAACUACAGGCCCUAAAGAGAAAUUGCCUCAAACCACAAGUGCUGUACAACAGAGGAUUGAGCAUCA
B12: chr7:101137743:101137929:+|3pUTR|ENSG00000106366|msi1|FALSE|unique (ssRNA)
RNA: GGGAGUUCUACAGUCCGACGAUCCCACUGAGGCCCUUUGCAGGAUGGAACUACGGGGCUUACAGGAGCUUUUGUGUGCCUGGUAGAAACUAUUUCUGUUCCAGUCACAUUGCCAUCACUCUUGUACUGCCUGCCACCGCGGAGCAACAGAGGAUUGAGCAUCA
B13: chr8:80500255:80500365:+|CDS|ENSG00000205189|unk|total|mutant (ssRNA)
RNA: GGGAGUUCUACAGUCCGACGAUCGAAAAACCAAACUACAAAAAGAUUUAUUUAUAAUAUUCCACCUAAUAAUGAAACGAAUUCCGAAGAUUGCUCAGUAAUGCAGCCACCUGUUGCCUAUCCAGAAGAAAAUACACUACUCAUCAACAGAGGAUUGAGCAUCA
B14: chrX:40073105:40073212:-|CDS|ENSG00000183337|unk|FALSE|unique (ssRNA)
RNA: GGGAGUUCUACAGUCCGACGAUCCUACCAAGAUGCCCUGGGGUUGGGCAUGGUGCAUCCCAUGUUGAUACCACACACGCCCAUAGAGAUUACUAAAGAGGAGAAACCAGAGAGGAGAUCCCGGUCCCAUGAGAGAGCCCGUUACAACAGAGGAUUGAGCAUCA

What follows are binders tested against MSI1 full-length (mouse, UniProt Q61474 1-362) (assay: nsRBNS (natural sequence RNA bind-n-seq); RBNS binding buffer (assumed for nsRBNS): 25 mM Tris pH 7.5, 150 mM KCl, 3 mM MgCl2, 0.01% Triton X-100, 500 ug/ml BSA, 20 U/ml SUPERase-In, 4 C; UNK is unkempt and MSI1 is Musashi-1; names of the RNAs are library labels; protein concentration not given here; high values mean tight binding).
UniProt Q61474, sequence (Q61474 whole entry): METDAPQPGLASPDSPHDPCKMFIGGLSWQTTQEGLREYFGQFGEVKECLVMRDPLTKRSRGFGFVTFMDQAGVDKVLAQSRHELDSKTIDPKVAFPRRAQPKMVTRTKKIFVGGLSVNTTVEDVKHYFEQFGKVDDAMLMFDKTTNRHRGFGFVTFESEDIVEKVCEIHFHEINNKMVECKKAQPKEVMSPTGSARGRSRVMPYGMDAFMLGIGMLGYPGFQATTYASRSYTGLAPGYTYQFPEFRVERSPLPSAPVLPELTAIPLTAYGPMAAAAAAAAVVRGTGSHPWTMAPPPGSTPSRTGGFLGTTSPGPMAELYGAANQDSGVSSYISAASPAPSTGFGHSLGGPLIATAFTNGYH

Binder | binding signal [enrichment R]
B1 | 0.362
B2 | 0.995
B3 | 9.57
B4 | 0.681
B5 | 0.695
B6 | 0.295
B7 | 0.542
B8 | 0.469
B9 | 0.43
B10 | 0.409
B11 | 0.418
B12 | 0.302
B13 | 3.62
B14 | 0.783

Reference: paper PMC12136788
